B1: CGGAGUU (DNA:RNA)
RNA: GGGAGACCGGAAUUCAGAUUGUCCCGGAGUUUUAAAUCCCGUCGUAGCCACCA
DNA 1: CAATCTGAATTCCGGTCTCCC
DNA 2: TGGTGGCTACGACGGGATT
B2: GGUGUUG (DNA:RNA)
RNA: B1 RNA with C25G, G27U, A28G, G29U, U31G
DNA 1: CAATCTGAATTCCGGTCTCCC
DNA 2: TGGTGGCTACGACGGGATT
B3: GCGGUUC (DNA:RNA)
RNA: B1 RNA with C25G, G26C, A28G, G29U, U31C
DNA 1: CAATCTGAATTCCGGTCTCCC
DNA 2: TGGTGGCTACGACGGGATT
B4: CUGGAAG (DNA:RNA)
RNA: B1 RNA with G26U, A28G, G29A, U30A, U31G
DNA 1: CAATCTGAATTCCGGTCTCCC
DNA 2: TGGTGGCTACGACGGGATT
B5: GGACUUG (DNA:RNA)
RNA: B1 RNA with C25G, G27A, A28C, G29U, U31G
DNA 1: CAATCTGAATTCCGGTCTCCC
DNA 2: TGGTGGCTACGACGGGATT
B6: CUGUACC (DNA:RNA)
RNA: B1 RNA with G26U, A28U, G29A, U30C, U31C
DNA 1: CAATCTGAATTCCGGTCTCCC
DNA 2: TGGTGGCTACGACGGGATT
B7: AUACCUG (DNA:RNA)
RNA: B1 RNA with C25A, G26U, G27A, A28C, G29C, U31G
DNA 1: CAATCTGAATTCCGGTCTCCC
DNA 2: TGGTGGCTACGACGGGATT
B8: CCAACGA (DNA:RNA)
RNA: B1 RNA with G26C, G27A, G29C, U30G, U31A
DNA 1: CAATCTGAATTCCGGTCTCCC
DNA 2: TGGTGGCTACGACGGGATT
B9: UUUCGUG (DNA:RNA)
RNA: B1 RNA with C25U, G26U, G27U, A28C, U31G
DNA 1: CAATCTGAATTCCGGTCTCCC
DNA 2: TGGTGGCTACGACGGGATT
B10: UGCCUGG (DNA:RNA)
RNA: B1 RNA with C25U, G27C, A28C, G29U, U30G, U31G
DNA 1: CAATCTGAATTCCGGTCTCCC
DNA 2: TGGTGGCTACGACGGGATT
B11: CAGGAUG (DNA:RNA)
RNA: B1 RNA with G26A, A28G, G29A, U31G
DNA 1: CAATCTGAATTCCGGTCTCCC
DNA 2: TGGTGGCTACGACGGGATT
B12: GAGUGCU (DNA:RNA)
RNA: B1 RNA with C25G, G26A, A28U, U30C
DNA 1: CAATCTGAATTCCGGTCTCCC
DNA 2: TGGTGGCTACGACGGGATT
B13: AGGUUUU (DNA:RNA)
RNA: B1 RNA with C25A, A28U, G29U
DNA 1: CAATCTGAATTCCGGTCTCCC
DNA 2: TGGTGGCTACGACGGGATT
B14: GCGGGUU (DNA:RNA)
RNA: B1 RNA with C25G, G26C, A28G
DNA 1: CAATCTGAATTCCGGTCTCCC
DNA 2: TGGTGGCTACGACGGGATT
B15: CUAAAAA (DNA:RNA)
RNA: B1 RNA with G26U, G27A, G29A, U30A, U31A
DNA 1: CAATCTGAATTCCGGTCTCCC
DNA 2: TGGTGGCTACGACGGGATT
B16: UCGUAGU (DNA:RNA)
RNA: B1 RNA with C25U, G26C, A28U, G29A, U30G
DNA 1: CAATCTGAATTCCGGTCTCCC
DNA 2: TGGTGGCTACGACGGGATT
B17: GUCACAA (DNA:RNA)
RNA: B1 RNA with C25G, G26U, G27C, G29C, U30A, U31A
DNA 1: CAATCTGAATTCCGGTCTCCC
DNA 2: TGGTGGCTACGACGGGATT
B18: AGAGCUA (DNA:RNA)
RNA: B1 RNA with C25A, G27A, A28G, G29C, U31A
DNA 1: CAATCTGAATTCCGGTCTCCC
DNA 2: TGGTGGCTACGACGGGATT
B19: AGAAGCC (DNA:RNA)
RNA: B1 RNA with C25A, G27A, U30C, U31C
DNA 1: CAATCTGAATTCCGGTCTCCC
DNA 2: TGGTGGCTACGACGGGATT
B20: GUGCGAG (DNA:RNA)
RNA: B1 RNA with C25G, G26U, A28C, U30A, U31G
DNA 1: CAATCTGAATTCCGGTCTCCC
DNA 2: TGGTGGCTACGACGGGATT
B21: CCAGUAC (DNA:RNA)
RNA: B1 RNA with G26C, G27A, A28G, G29U, U30A, U31C
DNA 1: CAATCTGAATTCCGGTCTCCC
DNA 2: TGGTGGCTACGACGGGATT
B22: CUGAAAC (DNA:RNA)
RNA: B1 RNA with G26U, G29A, U30A, U31C
DNA 1: CAATCTGAATTCCGGTCTCCC
DNA 2: TGGTGGCTACGACGGGATT
B23: ACAUCAA (DNA:RNA)
RNA: GGGAGACCGGAAUUCAGAUUGUCCACAUCAAUUAAAUCCCGUCGUAGCCACCA
DNA 1: CAATCTGAATTCCGGTCTCCC
DNA 2: TGGTGGCTACGACGGGATT
B24: CCCGUUA (DNA:RNA)
RNA: B23 RNA with A25C, A27C, U28G, C29U, A30U
DNA 1: CAATCTGAATTCCGGTCTCCC
DNA 2: TGGTGGCTACGACGGGATT
B25: GGCCAUA (DNA:RNA)
RNA: B1 RNA with C25G, G27C, A28C, G29A, U31A
DNA 1: CAATCTGAATTCCGGTCTCCC
DNA 2: TGGTGGCTACGACGGGATT
B26: AAGGAAA (DNA:RNA)
RNA: B23 RNA with C26A, A27G, U28G, C29A
DNA 1: CAATCTGAATTCCGGTCTCCC
DNA 2: TGGTGGCTACGACGGGATT
B27: UAAGCUG (DNA:RNA)
RNA: B23 RNA with A25U, C26A, U28G, A30U, A31G
DNA 1: CAATCTGAATTCCGGTCTCCC
DNA 2: TGGTGGCTACGACGGGATT
B28: ACGAACA (DNA:RNA)
RNA: B23 RNA with A27G, U28A, C29A, A30C
DNA 1: CAATCTGAATTCCGGTCTCCC
DNA 2: TGGTGGCTACGACGGGATT
B29: AAGAGGA (DNA:RNA)
RNA: B1 RNA with C25A, G26A, U30G, U31A
DNA 1: CAATCTGAATTCCGGTCTCCC
DNA 2: TGGTGGCTACGACGGGATT
B30: GUAGUUA (DNA:RNA)
RNA: B23 RNA with A25G, C26U, U28G, C29U, A30U
DNA 1: CAATCTGAATTCCGGTCTCCC
DNA 2: TGGTGGCTACGACGGGATT
B31: ACACUAC (DNA:RNA)
RNA: B23 RNA with U28C, C29U, A31C
DNA 1: CAATCTGAATTCCGGTCTCCC
DNA 2: TGGTGGCTACGACGGGATT

Numbering of substitutions follows the chain as printed; changes in the protein carry UniProt numbers. This is one part of the list.

For this test, the target named is T1, RBFOX1 RRM RbFoxmut (Fox-RRM*) (Homo sapiens, UniProt Q9NWB1 109-208, R118D;E147R;N151S;E152T).
T1 sequence: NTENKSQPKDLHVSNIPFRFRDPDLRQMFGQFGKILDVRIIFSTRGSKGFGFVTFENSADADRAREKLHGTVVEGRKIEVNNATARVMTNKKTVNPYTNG
Put plainly: EMSA; HiTS-Eq, 1 nM pool, 10 min; buffer printed only for the single-RNA assays: 10 mM Tris pH 7.5, 150 mM NaCl, 3.4 mM EDTA, 0.001% NP-40, 30 C. Particulars: tags: His6 N-terminal (pET28a); label: 5' 32P. In a few lines: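 Purified wild-type or mutant RbFox RRM at increasing concentrations was equilibrated with 1 nM of 5′-radiolabelled RNA carrying 7 randomized nucleotides for 10 min in 50 µL. Unbound RNA was separated by 8% native PAGE and sequenced. Relative association constants came from read-count changes of each RNA species compared with the control reaction, normalised to the cognate motif.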
As for B1, the binding signal is 0.0808 KA relative to UGCAUGU.

In the case of B2, the binding signal is 0.321 KA relative to UGCAUGU.

For the molecule B3, the binding signal is 0.148 KA relative to UGCAUGU.

For B4, the binding signal is 0.0969 KA relative to UGCAUGU.

Consider B5, for which the binding signal is 0.201 KA relative to UGCAUGU.

Consider B6, for which the binding signal was 0.137 KA relative to UGCAUGU.

As to B7, the binding signal is 0.0917 KA relative to UGCAUGU.

With B8, the binding signal is 0.0717 KA relative to UGCAUGU.

Regarding B9, the binding signal was 0.119 KA relative to UGCAUGU.

Turning to B10, the binding signal is 0.233 KA relative to UGCAUGU.

As to B11, the binding signal was 0.218 KA relative to UGCAUGU.

Turning to B12, the binding signal was 0.118 KA relative to UGCAUGU.

With B13, the binding signal was 0.068 KA relative to UGCAUGU.

B14: the binding signal was 0.124 KA relative to UGCAUGU.

B15: the binding signal is 0.086 KA relative to UGCAUGU.

Take B16: the binding signal was 0.152 KA relative to UGCAUGU.

For the molecule B17, the binding signal was 0.0827 KA relative to UGCAUGU.

For the molecule B18, the binding signal was 0.132 KA relative to UGCAUGU.

B19: the binding signal was 0.066 KA relative to UGCAUGU.

On to B20, for which the binding signal is 0.154 KA relative to UGCAUGU.

Take B21: the binding signal was 0.117 KA relative to UGCAUGU.

Consider B22, for which the binding signal was 0.0747 KA relative to UGCAUGU.

For the molecule B23, the binding signal was 0.0935 KA relative to UGCAUGU.

For B24, the binding signal is 0.0711 KA relative to UGCAUGU.

Turning to B25, the binding signal is 0.0669 KA relative to UGCAUGU.

Regarding B26, the binding signal was 0.0644 KA relative to UGCAUGU.

As to B27, the binding signal was 0.0766 KA relative to UGCAUGU.

As for B28, the binding signal is 0.0834 KA relative to UGCAUGU.

Turning to B29, the binding signal is 0.0647 KA relative to UGCAUGU.

As for B30, the binding signal is 0.141 KA relative to UGCAUGU.

Take B31: the binding signal is 0.0855 KA relative to UGCAUGU.
